# Test results from PubChem BioAssay AID1346428 (National Center for Advancing Translational Sciences (NCATS), 2018).
# Values joined by “and” are separate entries in the source; they are usually repeats but may differ in a detail not shown here. Identical values can stand only once. The campaign covered roughly 48,000 compounds. About 1,200 (2.5%) were called active. About 2% were inconclusive and are not listed.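 Rule for the calls: active = activation of at least 60% and not above a set upper limit (about 1 call in 100 departs from these limits); inconclusive = activation of 40% to 60%, or above that upper limit; inactive = activation under 40%.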 The list shows a part of the results.
# Molecular target: Probable G-protein coupled receptor 32 (Homo sapiens) (UniProt O75388)
# Chain of UniProt O75388 (O75388 whole entry, looked up): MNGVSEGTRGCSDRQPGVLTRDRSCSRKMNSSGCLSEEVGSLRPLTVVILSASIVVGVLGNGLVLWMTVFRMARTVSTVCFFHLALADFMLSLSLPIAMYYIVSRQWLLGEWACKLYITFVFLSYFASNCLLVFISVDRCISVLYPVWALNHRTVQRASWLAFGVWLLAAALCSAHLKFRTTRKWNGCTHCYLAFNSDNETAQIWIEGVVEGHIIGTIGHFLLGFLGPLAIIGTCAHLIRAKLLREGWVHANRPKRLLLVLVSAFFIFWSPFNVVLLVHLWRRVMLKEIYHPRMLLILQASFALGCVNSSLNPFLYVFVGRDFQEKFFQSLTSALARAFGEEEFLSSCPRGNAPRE
# Assay: qHTS for Agonists of Human Resolvin D1 Receptor DRV1; note: 0% is about no effect
# Conditions: CHO-K1 GPR32 beta-arrestin PathHunter luminescence, 90 min; at 76.9 µM; active compounds read high; zero percent set by DMSO-only wells
# Procedure, shortened: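 Agonism was scored by beta-Gal fragment complementation (chemiluminescent read, 1 h detection at ambient temperature) reporting beta-arrestin binding to GPR32 in engineered CHO-K1 cells. Compound treatment lasted 90 min at 37 C, normalized to a DMSO basal control.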
row,SMILES,activation
1,CCN(c1ccccc1)c1nnc(NC(=O)Nc2ccc(Br)cc2)s1,inactive: -2.26%
2,Cn1cnc(S(=O)(=O)N2CCC(C(=O)NCc3ccccc3Cl)CC2)c1,inactive: 1.3%
3,Cc1ccc(NC(=O)Nc2nnc(N3CCCC3)s2)cc1,inactive: 4.35%
4,CCOC(=O)c1c(NC(=O)/C=C/c2ccc(C(C)C)cc2)sc2c1CCC2,inactive: 35.6%
5,Cc1ccc(C(=O)CC2(O)C(=O)N(Cc3ccccc3F)c3ccccc32)cc1 (configuration not stated),inactive: -13.3%
6,COc1cccc(NC(=O)CSc2nc3ccc(NC(=O)c4cccs4)cc3s2)c1,active: 95%
7,Cc1ncc([N+](=O)[O-])n1CCO,inactive: -3.92%
8,CCc1ccc(OC(C)c2nc(-c3ccc(-n4cccc4)cc3)no2)cc1 (configuration not stated),inactive: -9.26%
9,COC(=O)Nc1nc2ccc(C(=O)C3CC3)cc2[nH]1,inactive: 10.6%
10,CNS(=O)(=O)c1cn(CC(=O)N2CCN(c3ccccc3F)CC2)cc1S(=O)(=O)NC,inactive: -15.2%
11,C[C@@]12C(=O)OC(=O)[C@]1(C)C1CCC2O1,inactive: -6.68%
12,CCOc1ccc(CCNc2ncnc3onc(-c4ccc(Cl)cc4)c23)cc1OCC,inactive: -5.44%
13,COCc1nc2cccnc2n1C1CCN(S(=O)(=O)N(C)C)CC1,inactive: -7.84%
14,O=S(=O)(NCc1csc(-c2ccccc2)n1)c1cccc(F)c1,inactive: -15.6%
15,OC(CCN1CCCCC1)(c1ccccc1)C1CC2C=CC1C2 (configuration not stated),inactive: 27.6% and inactive: -3.4%
16,COc1ccc(NC(=O)C(c2ccc(C)cc2)N(C)C(=O)/C=C\c2ccc3c(c2)OCO3)cc1 (configuration not stated),inactive: -25.8%
17,COc1cccc(C2=C(C(C)=O)Sc3nncn3N2C(C)=O)c1,inactive: -58.3%
18,CCOC(=O)c1ccc(NC(=O)CCc2c(C)nc3c(c(C)nn3-c3ccccc3)c2C)cc1,inactive: -1.45%
19,CC[C@@H](C)[C@H]1O[C@]2(CC[C@H]1C)C[C@@H]1C[C@@H](CC=C(C)[C@@H](O[C@H]3C[C@H](OC)[C@@H](O[C@H]4C[C@H](OC)[C@@H](O)[C@H](C)O4)[C@H](C)O3)[C@@H](C)C=CC=C3CO[C@@H]4[C@H](O)C(C)=C[C@@H](C(=O)O1)[C@]34O)O2,inactive: -19%
20,Cc1ccc(CN(Cc2ccco2)C(=O)COc2ccccc2C)cc1,inactive: 5.98%
21,CC(C)C(NS(=O)(=O)c1ccc2c(c1)oc(=O)n2C)C(=O)N1CCN(c2cccc(Cl)c2)CC1 (configuration not stated),inactive: -1.7%
22,CCN(CC)C(=O)c1ccc2c(c1)N(Cc1c(F)cccc1Cl)C(=O)c1ccccc1S2,inactive: -8.87%
